Publication PMC4975667 (Molecular cell, 2016)

Biological target: the molecule itself
Assay: crystal structure

B1: BAX G67R, recombinant (natural protein)
chain: not shown
binding result: binds
